Results on 29 molecules are retold here after the supplement of paper PMC8047034.

For one experiment, the system named is OVCAR4. Nature of the experiment: log2 surviving fraction (library drug vs vehicle, or drug + carboplatin vs carboplatin alone; relative to plate median); ovarian cancer lines: OVCAR4 is platinum-sensitive and Ov4Carbo platinum-resistant; higher = more cell survival. Particulars: library drug concentration 10 µM, 7 days.
For a further experiment, the system named is Ov4Carbo. The description is as above. The following applies: library drug concentration 10 µM, 7 days.

Each structure is given as a SMILES string. Counter-ions that a name gives are not always drawn. Some of the results follow. Most values come without repeats; read them as rough.

Consider `COC(=O)C1=C(C)NC(C)=C(C(=O)OCCN(C)Cc2ccccc2)C1c1cccc([N+](=O)[O-])c1` (stereo unspecified) [Nicardipine HCl], for which the log2 surviving fraction was -1.53 in the experiment with OVCAR4 (carboplatin co-treatment 0 µM), -1.31 in the experiment with OVCAR4 (carboplatin co-treatment 5 µM), -2.52 in the experiment with Ov4Carbo (carboplatin co-treatment 0 µM) and -2.86 in the experiment on Ov4Carbo (carboplatin co-treatment 5 µM).

Take `Cc1cccc(Nc2ccncc2S(=O)(=O)NC(=O)NC(C)C)c1` [Torsemide (Demadex)]: the log2 surviving fraction in the experiment with OVCAR4 (carboplatin co-treatment 0 µM) is 0.586; in the experiment with OVCAR4 (carboplatin co-treatment 5 µM), 0.0937; with Ov4Carbo (carboplatin co-treatment 0 µM) it was 0.0175; with Ov4Carbo (carboplatin co-treatment 5 µM), -0.206.

For `O=C(NCCO[N+](=O)[O-])c1cccnc1` [Nicorandil (Ikorel)], the log2 surviving fraction was -0.158 in the experiment on OVCAR4 (carboplatin co-treatment 0 µM), -0.117 in the experiment with OVCAR4 (carboplatin co-treatment 5 µM), -0.391 in the experiment with Ov4Carbo (carboplatin co-treatment 0 µM) and 1.02 in the experiment on Ov4Carbo (carboplatin co-treatment 5 µM).

Take `Cc1cccc(N(C)C(=S)Oc2ccc3ccccc3c2)c1` [Tolnaftate]: the log2 surviving fraction in the experiment on OVCAR4 (carboplatin co-treatment 0 µM) is 0.792; in the experiment on OVCAR4 (carboplatin co-treatment 5 µM), -0.17; in the experiment with Ov4Carbo (carboplatin co-treatment 0 µM) it was 0.653; in the experiment on Ov4Carbo (carboplatin co-treatment 5 µM), -1.03.

As to `O=S(=O)(F)Cc1ccccc1` [PMSF (Phenylmethylsulfonyl Fluoride)], the log2 surviving fraction in the experiment with OVCAR4 (carboplatin co-treatment 0 µM) was 0.613; in the experiment with OVCAR4 (carboplatin co-treatment 5 µM), 0.355; with Ov4Carbo (carboplatin co-treatment 0 µM), -0.27; in the experiment on Ov4Carbo (carboplatin co-treatment 5 µM), 0.154.

`CCCCCCOC(=O)NC(=N)c1ccc(NCc2nc3cc(C(=O)N(CCC(=O)OCC)c4ccccn4)ccc3n2C)cc1` [BIBR-1048 (Dabigatran)]: the log2 surviving fraction with OVCAR4 (carboplatin co-treatment 0 µM) turned out to be 0.462; in the experiment on OVCAR4 (carboplatin co-treatment 5 µM), 1.17; with Ov4Carbo (carboplatin co-treatment 0 µM) it was 0.158; in the experiment on Ov4Carbo (carboplatin co-treatment 5 µM), 0.583.

In the case of `CCOC(=O)c1ccc(C#Cc2ccc3c(c2)C(C)(C)CCS3)nc1` [Tazarotene (Avage)], the log2 surviving fraction was -0.506 in the experiment with OVCAR4 (carboplatin co-treatment 0 µM), 0.154 in the experiment on OVCAR4 (carboplatin co-treatment 5 µM), -0.205 with Ov4Carbo (carboplatin co-treatment 0 µM) and -0.376 with Ov4Carbo (carboplatin co-treatment 5 µM).

`NC(=O)c1cccnc1` [Nicotinamide (Niacinamide)]: the log2 surviving fraction with OVCAR4 (carboplatin co-treatment 0 µM) is 0.305; in the experiment on OVCAR4 (carboplatin co-treatment 5 µM), 1.07; in the experiment on Ov4Carbo (carboplatin co-treatment 0 µM), 0.55; in the experiment with Ov4Carbo (carboplatin co-treatment 5 µM) it was 0.47.

Turning to `CCC(C)(C)c1ccc(CC(C)CN2C[C@@H](C)O[C@@H](C)C2)cc1` (stereo partly specified) [Amorolfine Hydrochloride], the log2 surviving fraction in the experiment with OVCAR4 (carboplatin co-treatment 0 µM) was 0.278; in the experiment on OVCAR4 (carboplatin co-treatment 5 µM), 0.619; in the experiment on Ov4Carbo (carboplatin co-treatment 0 µM), 0.0285; in the experiment with Ov4Carbo (carboplatin co-treatment 5 µM) it was 0.119.

In the case of `COc1cnc(NS(=O)(=O)c2ccc(N)cc2)nc1` [Sulfameter (Bayrena)], the log2 surviving fraction was found to be 0.617 in the experiment with OVCAR4 (carboplatin co-treatment 0 µM), 0.122 in the experiment on OVCAR4 (carboplatin co-treatment 5 µM), 0.284 in the experiment with Ov4Carbo (carboplatin co-treatment 0 µM) and 0.171 in the experiment with Ov4Carbo (carboplatin co-treatment 5 µM).

As to `O=C1NCC2(CCN(CCc3ccccc3)CC2)O1` [Fenspiride HCl], the log2 surviving fraction in the experiment on OVCAR4 (carboplatin co-treatment 0 µM) is 0.33; in the experiment on OVCAR4 (carboplatin co-treatment 5 µM) it was 0.506; in the experiment on Ov4Carbo (carboplatin co-treatment 0 µM) it was 0.848; in the experiment with Ov4Carbo (carboplatin co-treatment 5 µM), -0.309.

For the molecule `C[C@@H]1O[C@@H](O[C@H]2C[C@@H](O)[C@]3(CO)[C@H]4[C@H](O)C[C@]5(C)[C@@H](C6=CC(=O)OC6)CC[C@]5(O)[C@@H]4CC[C@]3(O)C2)[C@H](O)[C@H](O)[C@H]1O` [Ouabain], the log2 surviving fraction in the experiment on OVCAR4 (carboplatin co-treatment 0 µM) was -8.49; in the experiment with OVCAR4 (carboplatin co-treatment 5 µM), -6.88; in the experiment on Ov4Carbo (carboplatin co-treatment 0 µM) it was -6.8; in the experiment on Ov4Carbo (carboplatin co-treatment 5 µM), -6.3.

With `COC(=O)[C@@H]1CC2=CC(=O)CC[C@]2(C)[C@@]23O[C@@H]2C[C@@]2(C)[C@@H](CC[C@@]24CCC(=O)O4)[C@H]13` [Eplerenone], the log2 surviving fraction in the experiment on OVCAR4 (carboplatin co-treatment 0 µM) came to 1.01; in the experiment on OVCAR4 (carboplatin co-treatment 5 µM), 0.91; in the experiment on Ov4Carbo (carboplatin co-treatment 0 µM) it was 0.681; with Ov4Carbo (carboplatin co-treatment 5 µM), 0.735.

As for `Cc1c(OCC(F)(F)F)ccnc1C[S+]([O-])c1nc2ccccc2[nH]1` (stereo unspecified) [Lansoprazole], the log2 surviving fraction with OVCAR4 (carboplatin co-treatment 0 µM) was -0.351; with OVCAR4 (carboplatin co-treatment 5 µM), -0.497; in the experiment with Ov4Carbo (carboplatin co-treatment 0 µM), -1.26; with Ov4Carbo (carboplatin co-treatment 5 µM), -1.81.

`CC1(C)S[C@@H]2[C@H](NC(=O)C(C(=O)O)c3ccccc3)C(=O)N2[C@H]1C(=O)O` (stereo partly specified) [Carbenicillin disodium]: the log2 surviving fraction with OVCAR4 (carboplatin co-treatment 0 µM) was -0.127; in the experiment on OVCAR4 (carboplatin co-treatment 5 µM) it was -0.15; in the experiment on Ov4Carbo (carboplatin co-treatment 0 µM), 0.751; in the experiment with Ov4Carbo (carboplatin co-treatment 5 µM) it was 0.591.

Regarding `Nc1nc(CC(=O)Nc2ccc(CCNC[C@H](O)c3ccccc3)cc2)cs1` [Mirabegron (YM178)], the log2 surviving fraction in the experiment on OVCAR4 (carboplatin co-treatment 0 µM) amounted to 0.172; in the experiment with OVCAR4 (carboplatin co-treatment 5 µM), 0.924; in the experiment with Ov4Carbo (carboplatin co-treatment 0 µM), 0.376; in the experiment on Ov4Carbo (carboplatin co-treatment 5 µM), 1.47.

For `CCOC(=O)[C@H](CCc1ccccc1)N[C@H]1CS[C@H](c2cccs2)CN(CC(=O)O)C1=O` [Temocapril HCl], the log2 surviving fraction with OVCAR4 (carboplatin co-treatment 0 µM) was 0.155; in the experiment with OVCAR4 (carboplatin co-treatment 5 µM), -0.244; with Ov4Carbo (carboplatin co-treatment 0 µM), -0.385; with Ov4Carbo (carboplatin co-treatment 5 µM), -0.0975.

Take `Nc1ncnc2c1ncn2[C@@H]1O[C@H](CO)[C@@H](O)[C@H]1O` [Adenosine (Adenocard)]: the log2 surviving fraction was found to be 1.87 in the experiment on OVCAR4 (carboplatin co-treatment 0 µM), 1.47 with OVCAR4 (carboplatin co-treatment 5 µM), 1.13 in the experiment with Ov4Carbo (carboplatin co-treatment 0 µM) and 0.206 in the experiment on Ov4Carbo (carboplatin co-treatment 5 µM).

Consider `CN1C(CCl)Nc2cc(Cl)c(S(N)(=O)=O)cc2S1(=O)=O` (stereo unspecified) [Methyclothiazide], for which the log2 surviving fraction in the experiment with OVCAR4 (carboplatin co-treatment 0 µM) was 0.00591; in the experiment with OVCAR4 (carboplatin co-treatment 5 µM) it was -0.334; in the experiment with Ov4Carbo (carboplatin co-treatment 0 µM) it was 0.519; in the experiment with Ov4Carbo (carboplatin co-treatment 5 µM), 0.682.

Regarding `O=C(O)c1cn(-c2ccc(F)cc2)c2cc(N3CCNCC3)c(F)cc2c1=O` [Sarafloxacin HCl], the log2 surviving fraction with OVCAR4 (carboplatin co-treatment 0 µM) is -0.179; in the experiment on OVCAR4 (carboplatin co-treatment 5 µM) it was -0.77; in the experiment on Ov4Carbo (carboplatin co-treatment 0 µM), 1.29; with Ov4Carbo (carboplatin co-treatment 5 µM), -9.66.

On to `CNC[C@@H](O)c1ccc(O)c(O)c1` [L-Adrenaline (Epinephrine)], for which the log2 surviving fraction was -0.743 in the experiment on OVCAR4 (carboplatin co-treatment 0 µM), -0.621 with OVCAR4 (carboplatin co-treatment 5 µM), -0.11 in the experiment with Ov4Carbo (carboplatin co-treatment 0 µM) and 0.566 in the experiment with Ov4Carbo (carboplatin co-treatment 5 µM).

As to `O=C(Nc1c(Cl)cncc1Cl)c1ccc(OC(F)F)c(OCC2CC2)c1` [Roflumilast (Daxas)], the log2 surviving fraction in the experiment with OVCAR4 (carboplatin co-treatment 0 µM) was -0.266; in the experiment on OVCAR4 (carboplatin co-treatment 5 µM), -0.358; with Ov4Carbo (carboplatin co-treatment 0 µM) it was -0.664; with Ov4Carbo (carboplatin co-treatment 5 µM), 0.0281.

For `Cc1cccc(C)c1OCC(=O)N[C@@H](Cc1ccccc1)[C@@H](O)C[C@H](Cc1ccccc1)NC(=O)[C@H](C(C)C)N1CCCNC1=O` [Lopinavir (ABT-378)], the log2 surviving fraction with OVCAR4 (carboplatin co-treatment 0 µM) is -0.783; in the experiment with OVCAR4 (carboplatin co-treatment 5 µM), -0.496; with Ov4Carbo (carboplatin co-treatment 0 µM) it was -8.82; with Ov4Carbo (carboplatin co-treatment 5 µM), -1.95.

As to `CN(C/C=C/c1ccccc1)Cc1cccc2ccccc12` [Naftifine HCl], the log2 surviving fraction in the experiment with OVCAR4 (carboplatin co-treatment 0 µM) was 0.25; in the experiment with OVCAR4 (carboplatin co-treatment 5 µM), 0.031; with Ov4Carbo (carboplatin co-treatment 0 µM) it was -0.308; in the experiment on Ov4Carbo (carboplatin co-treatment 5 µM), -0.531.

Take `C[C@]12CC[C@H](O)C[C@H]1CC[C@@H]1[C@@H]2C[C@@H](O)[C@]2(C)[C@@H](C3=CC(=O)OC3)CC[C@]12O` [Digoxigenin]: the log2 surviving fraction is -10.1 in the experiment on OVCAR4 (carboplatin co-treatment 0 µM), -7.91 in the experiment on OVCAR4 (carboplatin co-treatment 5 µM), -8.41 with Ov4Carbo (carboplatin co-treatment 0 µM) and -7.73 in the experiment on Ov4Carbo (carboplatin co-treatment 5 µM).

In the case of `CC(=O)NS(=O)(=O)c1ccc(N)cc1` [sulfacetamide sodium], the log2 surviving fraction in the experiment on OVCAR4 (carboplatin co-treatment 0 µM) was -0.476; with OVCAR4 (carboplatin co-treatment 5 µM), -0.402; in the experiment on Ov4Carbo (carboplatin co-treatment 0 µM) it was 0.51; in the experiment with Ov4Carbo (carboplatin co-treatment 5 µM) it was 0.112.

Take `CC(C)NCC(O)COc1ccc(CCOCC2CC2)cc1` (stereo unspecified) [Betaxolol (Betoptic)]: the log2 surviving fraction in the experiment with OVCAR4 (carboplatin co-treatment 0 µM) is 1.44; with OVCAR4 (carboplatin co-treatment 5 µM), -0.309; in the experiment on Ov4Carbo (carboplatin co-treatment 0 µM), 0.665; in the experiment with Ov4Carbo (carboplatin co-treatment 5 µM), -1.9.

For the molecule `Cc1cc(C(C#N)c2ccc(Cl)cc2)c(Cl)cc1NC(=O)c1cc(I)cc(I)c1O` (stereo unspecified) [Closantel], the log2 surviving fraction in the experiment on OVCAR4 (carboplatin co-treatment 0 µM) is 0.11; in the experiment with OVCAR4 (carboplatin co-treatment 5 µM), -0.776; in the experiment with Ov4Carbo (carboplatin co-treatment 0 µM), 0.995; in the experiment on Ov4Carbo (carboplatin co-treatment 5 µM), 0.304.

As to `CC1Cc2ccccc2N1NC(=O)c1ccc(Cl)c(S(N)(=O)=O)c1` (stereo unspecified) [Indapamide (Lozol)], the log2 surviving fraction with OVCAR4 (carboplatin co-treatment 0 µM) was -2.87; with OVCAR4 (carboplatin co-treatment 5 µM), -2.39; in the experiment on Ov4Carbo (carboplatin co-treatment 0 µM), 1.07; in the experiment with Ov4Carbo (carboplatin co-treatment 5 µM), 0.505.
